Test results as given in PubChem BioAssay AID686978 (National Center for Advancing Translational Sciences (NCATS), 2013).
Among all 420,000 compounds or so, about 64,000 (15%) were called active. The shares of active, inactive and inconclusive entries below differ from those in the screen. The call rests on the fitted dose curve; in most records, active means well fitted inhibition curve with a large enough effect; inconclusive means small, poorly fitted or top-dose-only effect; inactive means flat fitted curve, though single readings scatter. No potency is given beside an inconclusive call; the fits are too rough.

assay: qHTS for Inhibitors of human tyrosyl-DNA phosphodiesterase 1 (TDP1): qHTS in cells in absence of CPT; conditions: DT40 Tdp1-/- hTDP1 cells, no CPT, ATP luminescence, 48 h; activity change, negative = growth inhibition: at 46.2 µM (top of the series) unless noted; further: nearly all actives have a fitted effect of over 55% in size
From the text: Human tyrosyl-DNA phosphodiesterase 1 (TDP1) is a novel repair gene, and we propose to use it as a new target for anticancer drug development. TDP1 is not an essential protein, but under treatment with topoisomerase I poison (camptothecin: CPT), TDP1 works as a critical factor for cell survival. To directly identify novel TDP1 inhibitors active in a cellular environment, we have knocked-out the Tdp1 gene in chicken DT40 cells (Tdp1-/-) and generated a complemented counterpart cells that contains a stable transfection of the human TDP1 gene (Tdp1-/-;hTDP1 cells). For the primary screen, Tdp1-/-;hTDP1 cells will be exposed to small molecules in the presence or absence of CPT, and their growth kinetics will be evaluated after 48 hours by measuring ATP activity. […] The hit compounds will then be evaluated in the presence or absence of CPT using Tdp1-/- cells. […] In tertiary assays, biochemical gel-based assays will be used to assess whether the hit compounds specifically target TDP1.
To this end, we have screened this cell line against the MLSMR in two primary screens. In one screen we add CPT and in the other we screen in the absence of CPT; this AID represents the screen where CPT was absent.
NIH Chemical Genomics Center [NCGC]
NIH Molecular Libraries Probe Centers Network [MLPCN]
Assay Submitter (PI): Yves Pommier, NCI
DT40-hTDP1 cells without 20 nM Camptothecin (add 20 microL of DMSO in 1 L of cell culture medium) were dispensed at 400 cells/5microL/well in tissue culture treated 1536-well white wall/solid bottom assay plates (Greiner Bio-One North America, NC, U.S.A.) using a Multidrop Combi 8 channel dispenser (Thermo Fisher, Waltham, MA, USA). 23 nL compounds and controls were transferred using the pin tool (Kalypsys, San Diego, CA, USA) to the assay plates. The assay plates were then incubated at 37 masculineC for a minimum 48 hr. Three microL of Cell Titer Glo solution was added to the plates and incubated at RT in dark for 30 min. Luminescence was read using ViewLux (Perkin Elmer) with 1 sec exposure slow speed, high gain and 2x binning.
On the % scale 0 is the no-effect control and ±100 the full control effect; potency means the concentration at half of the fitted maximal effect; tags describe the fitted curve by direction and shape.

SMILES | activity change, negative = growth inhibition | Potency
Nc1nc(NC(=O)c2ccc(F)cc2)ns1 | inactive: 3.1% | –
Cc1scc(CN2CCN(c3ccccc3F)CC2)c1C | – | inconclusive [inhibitor, single point]
COc1ccc(Nc2nc(N)nc(CSc3nc(C)cc(C)n3)n2)cc1 | – | inconclusive [inhibitor, single point]
Cc1ccc(-c2cc(C(=O)N/N=C/c3cccnc3)c3ccccc3n2)cc1C | – | active: 8.2 µM
CCOc1ccc(NC(=O)Cn2c(=O)n(Cc3ccc4c(c3)OCO4)c(=O)c3ccc(C(=O)NC4CCCCC4)cc32)cc1 | – | active: 4.61 µM
OCc1nc2ccccc2n1CCCc1ccccc1 | – | inconclusive [inhibitor, single point]
COc1cccc2oc3ccc(C#Cc4ccccn4)cc3c(=O)c12 | – | inconclusive [inhibitor, partial curve]
COc1ccc2[nH]c(=O)c(CN(CC3CCCO3)C(=O)Nc3ccccc3)cc2c1 (stereo not given) | – | inconclusive [inhibitor, single point]
O=C(CSc1nc(N2CCOCC2)nc(N2CCOCC2)n1)Nc1cccc(C(F)(F)F)c1 | – | inconclusive [inhibitor, single point]
Cc1ccc(CNS(=O)(=O)c2ccc(C(=O)N(C)C)s2)cc1 | – | inconclusive [inhibitor, single point]
CC1CCN(S(=O)(=O)c2ccc(C(=O)Nc3nnc(C4CC4)o3)cc2)CC1 | – | inconclusive [inhibitor, single point]
CC(=O)c1cccc(NC(=O)c2cnn3ccccc23)c1 | – | inconclusive [inhibitor, full curve, poor fit]
CCC(C)Sc1nc2c(c(=O)[nH]c(=O)n2C)n1Cc1ccccc1Cl (stereo not given) | – | inconclusive [inhibitor, single point]
O=C(O)C1=C[C@H](c2ccc3c(c2)OCO3)C[C@H](OCCCCO)O1 | inactive: -3.54% | –
N#CC1=C(N)Nc2nc3ccccc3n2C1c1ccc(Cl)cc1 (stereo not given) | – | inconclusive [inhibitor, partial curve]
Cc1csc(NC(=O)c2cccc(Cn3nc(C)c(Br)c3C)c2)n1 | – | inconclusive [inhibitor, partial curve]
CCN(Cc1ccncc1)C(=O)c1cc(COc2c(C)cccc2C)on1 | – | inconclusive [inhibitor, single point]
Cc1ccc(CN(C(=O)COc2ccccc2Cl)c2ccccn2)o1 | – | inconclusive [inhibitor, single point]
Cc1cccc(N2C(=O)NC3(CCCCC3)C2=O)c1 | inactive: -7.95% | –
Cc1cccc(NC(=O)Cn2c(=O)n(Cc3ccc4c(c3)OCO4)c(=O)c3oc4ccccc4c32)c1C | – | active: 7.31 µM
CCOc1ccc(Oc2ccccc2NC(=O)CCc2nc3ccccc3c(=O)[nH]2)cc1 | – | active: 20.6 µM
O=C(CNCCC1=CCCCC1)Nc1ccc(N2CCCCCC2)cc1 | – | active: 20.6 µM
C/C(O)=C(\C#N)c1nc2ccccc2[nH]1 | – | inconclusive [inhibitor, full curve]
COc1ccc(OC)c(CNC(=O)Nc2cn(CC(C)C)c(=O)c3ccccc23)c1 | – | inconclusive [inhibitor, single point]

SMILES | activity change, negative = growth inhibition | Potency
CC(C)(C)Nc1ncnc2sc(-c3ccccc3)cc12 | – | active: 23.1 µM
CCc1nnc(NC(=O)c2ccc(S(=O)(=O)NCC(C)C)cc2)s1 | inconclusive: -32.6% [inhibitor] | –
Cc1cccc(C)c1OCC(O)CNS(=O)(=O)c1ccccc1C(=O)N1CCCCC1 (stereo not given) | – | active: 20.6 µM
Cc1cc(C)c2sc(N(CCN(C)C)C(=O)c3c(F)cccc3F)nc2c1 | – | inconclusive [inhibitor, single point]
O=C(Cc1cccs1)Nc1nc2c(ccc3ccccc32)s1 | – | inconclusive [inhibitor, partial curve]
Cc1ccc(N2CC(C(=O)Nc3ccc(S(=O)(=O)NCC4CCCO4)cc3)CC2=O)cc1 (stereo not given) | – | inconclusive [inhibitor, partial curve]
CS/C(=C\[N+](=O)[O-])Nc1ccc(C)cc1 | – | inconclusive [inhibitor, single point]
O=C1CCC(=O)N1N1C(=O)C2C3c4ccccc4C(c4ccccc43)C2C1=O (stereo not given) | inactive: -0.16% | –
COc1ccccc1C(=O)NCC[N+](C)(C)C | inactive: -6.3% | –
C=C(CC[C@@H](O)C(C)(C)O)[C@H]1CC[C@]2(C)[C@@H]1CCC1[C@@]3(C)CCC(=O)C(C)(C)C3CC[C@]12C (stereo not given in full) | – | inconclusive [inhibitor, single point]
COc1cc(=O)n2c(c1C(=O)NC(C)c1ccco1)CCN(C(=O)c1[nH]c(C)cc1C)CC2 (stereo not given) | inactive: 0.117% | –
Cc1ccc(S(=O)(=O)CCC(=O)Nc2nc(-c3cccnc3)cs2)cc1 | – | inconclusive [inhibitor, full curve]
CCn1cc(S(=O)(=O)c2cc(C)cc(C)c2)c(=O)c2cc(F)c(N3CCCCC3)cc21 | – | active: 20.6 µM
CCOC(=O)/C(C#N)=C/C=C1\C=Cc2ccccc2N1CC | – | active: 23.1 µM
O=C(Nc1cc(Cl)ccc1Cl)c1ccc(OC(=O)c2ccco2)cc1 | – | inconclusive [inhibitor, partial curve]
O=C(c1[nH]c(C(F)(F)F)nc1-c1ccccc1)N1CCC(Cc2ccccc2)CC1 | – | inconclusive [inhibitor, single point]
C/C(CC(=O)Nc1cccc(F)c1)=N\NC(=O)C(=O)NC1CCCCC1 | inactive: -22.7% | –
O=C(Nc1nc(-c2ccc(F)c(F)c2)cs1)Nc1ccc(F)cc1F | – | active: 0.651 µM
O=C(CCNc1ccc(Br)cc1)c1cccc([N+](=O)[O-])c1 | – | active: 18.4 µM
CC(=O)Oc1cc2c(c3ccccc13)CCC2=O | – | inconclusive [inhibitor, single point]
CCN(Cc1nc2cc(Cl)ccc2c(=O)[nH]1)C(=O)c1nn(C)c(=O)c2ccccc12 | – | inconclusive [inhibitor, single point]
C=CCOc1ccc2ccccc2c1CNn1c(C)n[nH]c1=S | – | inconclusive [inhibitor, single point]
COc1ccccc1NS(=O)(=O)c1cc(NC(=O)c2ccncc2)ccc1N1CCOCC1 | – | active: 11.6 µM
CCOC(=O)C1CCCN(C(=O)CN2C(=O)c3ccccc3C2=O)C1 (stereo not given) | inactive: 1.06% | –

SMILES | activity change, negative = growth inhibition | Potency
CN(CC(=O)Nc1ccccc1Cl)C(=O)COC(=O)c1ccc(-c2ccc(O)cc2)cc1 | inactive: -0.137% | –
COC(=O)/C(C#N)=C/c1c(N2CCCCCC2)nc2ccccn2c1=O | – | inconclusive [inhibitor, single point]
COCCNC(=S)N1CCc2cc(OC)c(OC)cc2C1COc1ccc(C(C)C)cc1 (stereo not given) | – | inconclusive [inhibitor, single point]
COc1ccc(C(C)=O)cc1CC(=O)NCCCn1ccnc1 | inactive: 3.63% | –
CC1=CC(C)(C)N(C(=O)CN2C(=O)c3ccccc3C2=O)c2ccccc21 | – | inconclusive [inhibitor, single point]
Nc1ccc2nc(SCC(=O)N3CCN(c4ccccc4)CC3)sc2c1 | inconclusive: -39% [inhibitor] | –
Cn1c(CCNC(=O)c2ccco2)nc2cc(NC(=O)NC3CCCCC3)ccc21 | inconclusive: -30.3% [inhibitor] | –
Cc1cccc(Nc2nnc(SCC(=O)Nc3ccccc3[N+](=O)[O-])s2)c1C | – | inconclusive [inhibitor, single point]
COCCSc1nc2c([nH]c3ccccc32)c(=O)n1-c1ccc(OC)c(OC)c1 | inconclusive: -30.4% [inhibitor] | –
CCOC(=O)c1ccc(NCc2nc3ccccc3n2C)cc1 | – | inconclusive [inhibitor, single point]
CCCCn1c(CNC(=O)C23CC4CC(CC(C4)C2)C3)nnc1SCC(=O)Nc1ccc(C)cc1 | – | inconclusive [inhibitor, single point]
Clc1ccc(Cn2ccc(C3CC3)n2)cc1 | inactive: 13.3% | –
Cc1ccc(-c2nc3sc4c(N)ncnc4c3c3c2CCCC3)cc1 | inactive: -9.03% | –
Cc1cccc(N2CCN(C(=O)c3ccccc3NC(=O)C3=CSCCO3)CC2C)c1 (stereo not given) | – | inconclusive [inhibitor, single point]
Cc1ccc(CNC(=O)Nc2cc(C(=O)NCc3cccc(F)c3)ccc2N2CCCC2)cc1 | – | inconclusive [inhibitor, single point]
C[C@]12c3[nH]c4ccc(Cl)cc4c3CCN1C(=O)[C@@H](CC(=O)NCCC1=CCCCC1)C[C@@H]2C(=O)N1CCOCC1 | – | active: 16.4 µM
Cc1cc(NC(=O)CCC(=O)N(Cc2ccco2)C(C(=O)NC2CCCCC2)c2ccccc2)no1 (stereo not given) | – | inconclusive [inhibitor, full curve, poor fit]
Cc1ccc(C)c(OCC(=O)NCC(c2ccco2)N2CCCCC2)c1 (stereo not given) | – | inconclusive [inhibitor, single point]
CCOc1ccc(NS(=O)(=O)c2ccc(OCC)c3ncccc23)cc1 | – | active: 10 µM
Cc1ccc(S(=O)(=O)NN=Cc2ccco2)cc1 | inactive: -4.05% | –
COc1ccccc1NC(=O)Cn1c(CN2CCCCC2)nc2ccccc2c1=O | – | inconclusive [inhibitor, single point]
CCCCC1CCC(C(=O)N(CCOC)c2c(N)n(CCCC)c(=O)[nH]c2=O)CC1 (stereo not given) | – | inconclusive [inhibitor, single point]
